Source: the supplement of paper PMC4604168 (melanoma cell lines)
The other results are listed elsewhere or left out. Many values rest on one well or one pass, so single values are uncertain.

Assays:
Assay in all cases: cell count relative to DMSO control; melanoma cells; higher = more viable cells
Conditions in all cases: library dose: low library concentration; 72 h
WM115 = tested on: WM115
WM1716 = tested on: WM1716
WM1745 = tested on: WM1745
WM3526 = tested on: WM3526
WM3619 = tested on: WM3619
WM451Lu = tested on: WM451Lu
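Also: cell number obtained by counting DAPI-stained nuclei in high-throughput microscope images with image analysis software, screen run in 1,536-well plates.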

CCc1ccc(CCOc2ccc(CC3SC(=O)NC3=O)cc2)nc1 (configuration not stated) [pioglitazone] + O=S(=O)(c1ccccc1)N(CC(F)(F)F)c1ccc(C(O)(C(F)(F)F)C(F)(F)F)cc1 [T0901317] (first compound 2 µM, partner dose 1.4 µM) was tested, and the cell count (WM115) was 92.4%, the cell count (WM1716) was 79% and the cell count (WM1745) was 81.5%. For the same compound, the cell count (WM3526) was 86.3%, the cell count (WM3619) was 109% and the cell count (WM451Lu) was 85.3%.
With CCCCCCCCc1ccc(CCC(N)(CO)CO)cc1 [fingolimod] + CC(=O)c1c(C)c2cnc(Nc3ccc(N4CCNCC4)cn3)nc2n(C2CCCC2)c1=O [palbociclib] (first compound 2 µM, partner dose 0.04 µM) the cell count (WM115) was 64.3%, the cell count (WM1716) was 66.7% and the cell count (WM1745) was 83.8%. It also gave a cell count (WM3526) of 86.1%, a cell count (WM3619) of 71.5% and a cell count (WM451Lu) of 88%.
CC(C)(C)c1cnc(CSc2cnc(NC(=O)C3CCNCC3)s2)o1 + COc1cc(N2CCC(N3CCN(C)CC3)CC2)ccc1Nc1ncc(Cl)c(Nc2ccccc2S(=O)(=O)C(C)C)n1 [NVP-TAE684] (first compound 0.01 µM, partner dose 0.08 µM) gave a cell count (WM115) of 92.9%, a cell count (WM1716) of 88% and a cell count (WM1745) of 78.1%. The cell count (WM3526) was 110%, the cell count (WM3619) was 103% and the cell count (WM451Lu) was 102%.
For CN(NC(=O)CC(=O)NN(C)C(=S)c1ccccc1)C(=S)c1ccccc1 + COc1ccc(-c2ccc3c(N4CCOCC4)nc(N4C[C@@H](C)O[C@@H](C)C4)nc3n2)cc1CO [KU0063794] (first compound 0.006 µM, partner dose 0.02 µM), the cell count (WM115) was 83.7%, the cell count (WM1716) was 73.4% and the cell count (WM1745) was 55.6%. The cell count (WM3526) was 100%, the cell count (WM3619) was 64.9% and the cell count (WM451Lu) was 99%.
CCCCCCCCc1ccc(CCC(N)(CO)CO)cc1 [fingolimod] + OCc1c[nH]c2ccccc12 [Indole-3-carbinol] (first compound 2 µM, partner dose 0.8 µM) showed a cell count (WM115) of 90.1%, a cell count (WM1716) of 80.6% and a cell count (WM1745) of 61.8%. It also gave a cell count (WM3526) of 77.6%, a cell count (WM3619) of 48.2% and a cell count (WM451Lu) of 95.7%.
NC(=O)c1ccc(N(C(N)=O)c2c(F)cccc2F)nc1-c1ccc(F)cc1F + C=CCn1c(=O)c2cnc(Nc3ccc(N4CCN(C)CC4)cc3)nc2n1-c1cccc(C(C)(C)O)n1 [MK1775] (first compound 0.4 µM, partner dose 0.02 µM) showed a cell count (WM115) of 86%, a cell count (WM1716) of 84.3% and a cell count (WM1745) of 77%. For the same compound, the cell count (WM3526) was 89.8%, the cell count (WM3619) was 57.2% and the cell count (WM451Lu) was 78.1%.
With Cc1ccc(NC(=O)c2cccc(N(C)C)c2)cc1NC(=O)c1ccc(O)cc1 + CC(C)CCN1c2nc(Nc3cc(F)c(O)c(F)c3)ncc2N(C)C(=O)C1C [BID1870] (first compound 2 µM, partner dose 0.2 µM) the cell count (WM115) was 96.7%, the cell count (WM1716) was 92.7% and the cell count (WM1745) was 104%. For the same compound, the cell count (WM3526) was 93.1%, the cell count (WM3619) was 92.1% and the cell count (WM451Lu) was 127%.
NC(=O)c1ccc(N(C(N)=O)c2c(F)cccc2F)nc1-c1ccc(F)cc1F + OCCn1cc(-c2cnc3nnn(Cc4ccc5ncccc5c4)c3n2)cn1 [PF04217903] (first compound 0.4 µM, partner dose 1 µM) was tested, and the cell count (WM115) was 100%, the cell count (WM1716) was 100% and the cell count (WM1745) was 104%. It also gave a cell count (WM3526) of 83.4%, a cell count (WM3619) of 91.7% and a cell count (WM451Lu) of 118%.
In the case of NC(=O)c1ccc(N(C(N)=O)c2c(F)cccc2F)nc1-c1ccc(F)cc1F + Nc1cccc2c1CN(C1CCC(=O)NC1=O)C2=O [lenalidomide] (first compound 0.4 µM, partner dose 1 µM), the cell count (WM115) is reported as 107%, the cell count (WM1716) is reported as 93.9% and the cell count (WM1745) is reported as 90.1%. It also gave a cell count (WM3526) of 97.1%, a cell count (WM3619) of 113% and a cell count (WM451Lu) of 108%.
In the case of CCCCCCCCc1ccc(CCC(N)(CO)CO)cc1 [fingolimod] + CC(C)CCN1c2nc(Nc3cc(F)c(O)c(F)c3)ncc2N(C)C(=O)C1C [BID1870] (first compound 2 µM, partner dose 0.2 µM), the cell count (WM115) is reported as 81.6%, the cell count (WM1716) is reported as 61.5% and the cell count (WM1745) is reported as 76.4%. The cell count (WM3526) was 84.1%, the cell count (WM3619) was 84.7% and the cell count (WM451Lu) was 93.5%.
CCCCCCCCc1ccc(CCC(N)(CO)CO)cc1 [fingolimod] + Cc1cc([N+](=O)[O-])ccc1NS(=O)(=O)c1cc(Cl)ccc1Cl [FH535] (first compound 2 µM, partner dose 1 µM) gave a cell count (WM115) of 91.5%, a cell count (WM1716) of 71.7% and a cell count (WM1745) of 91.2%. For the same compound, the cell count (WM3526) was 90%, the cell count (WM3619) was 133% and the cell count (WM451Lu) was 124%.
Compound COc1cc2c(Oc3ccc4[nH]c(C)cc4c3F)ncnc2cc1OCCCN1CCCC1 [cediranib] + COc1cc2ncnc(Nc3ccc(Oc4ccccc4)cc3)c2cc1OC [SrcI1] (first compound 0.4 µM, partner dose 2 µM) has a cell count (WM115) of 94%, a cell count (WM1716) of 97% and a cell count (WM1745) of 87.6%. It also gave a cell count (WM3526) of 88.5%, a cell count (WM3619) of 77.4% and a cell count (WM451Lu) of 128%.
NC(=O)c1ccc(N(C(N)=O)c2c(F)cccc2F)nc1-c1ccc(F)cc1F + COc1cc(Nc2ncc(F)c(Nc3ccc4c(n3)NC(=O)C(C)(C)O4)n2)cc(OC)c1OC [Tamatinib] (first compound 0.4 µM, partner dose 0.4 µM) was tested, and the cell count (WM115) was 88.6%, the cell count (WM1716) was 81.7% and the cell count (WM1745) was 73.8%. It also gave a cell count (WM3526) of 107%, a cell count (WM3619) of 99.8% and a cell count (WM451Lu) of 85.3%.
In the case of CCc1ccc(CCOc2ccc(CC3SC(=O)NC3=O)cc2)nc1 (configuration not stated) [pioglitazone] + CCCCCCCCCCCC1=C(O)C(=O)C=C(O)C1=O [Embelin] (first compound 2 µM, partner dose 1.2 µM), the cell count (WM115) is reported as 98.7%, the cell count (WM1716) is reported as 114% and the cell count (WM1745) is reported as 83.7%. The cell count (WM3526) was 107%, the cell count (WM3619) was 115% and the cell count (WM451Lu) was 118%.
With Cc1ccc(NC(=O)c2cccc(N(C)C)c2)cc1NC(=O)c1ccc(O)cc1 + O=C(Nc1cccc(Cl)c1)Nc1ncc(CCNc2ncnc3ccsc23)s1 [SNS314] (first compound 2 µM, partner dose 0.0008 µM) the cell count (WM115) was 64.4%, the cell count (WM1716) was 112% and the cell count (WM1745) was 96.9%. The cell count (WM3526) was 104%, the cell count (WM3619) was 108% and the cell count (WM451Lu) was 78.8%.
CCCCCCCCc1ccc(CCC(N)(CO)CO)cc1 [fingolimod] + CN(NC(=O)CC(=O)NN(C)C(=S)c1ccccc1)C(=S)c1ccccc1 [STA4783] (first compound 2 µM, partner dose 0.006 µM) was tested, and the cell count (WM115) was 72.1%, the cell count (WM1716) was 70.1% and the cell count (WM1745) was 65.9%. It also gave a cell count (WM3526) of 73.4%, a cell count (WM3619) of 82.6% and a cell count (WM451Lu) of 90.8%.
Work on Cc1ccc(NC(=O)c2cccc(N(C)C)c2)cc1NC(=O)c1ccc(O)cc1 + Cn1cc(/C=C2\C(=O)Nc3cccnc32)c2ccccc21 [GW441756] (first compound 2 µM, partner dose 0.4 µM) yielded a cell count (WM115) of 97.7%, a cell count (WM1716) of 116% and a cell count (WM1745) of 83.6%. It also gave a cell count (WM3526) of 126%, a cell count (WM3619) of 112% and a cell count (WM451Lu) of 114%.
NC(=O)c1ccc(N(C(N)=O)c2c(F)cccc2F)nc1-c1ccc(F)cc1F + COc1cc(N2CCC(N3CCN(C)CC3)CC2)ccc1Nc1ncc(Cl)c(Nc2ccccc2S(=O)(=O)C(C)C)n1 [NVP-TAE684] (first compound 0.4 µM, partner dose 0.08 µM) gave a cell count (WM115) of 89.7%, a cell count (WM1716) of 102% and a cell count (WM1745) of 84.6%. For the same compound, the cell count (WM3526) was 91.5%, the cell count (WM3619) was 109% and the cell count (WM451Lu) was 106%.
NC(=O)c1ccc(N(C(N)=O)c2c(F)cccc2F)nc1-c1ccc(F)cc1F + Oc1nc(-c2ccc(C(F)(F)F)cc2)nc2c1CSCC2 [XAV939] (first compound 0.4 µM, partner dose 2 µM) was tested, and the cell count (WM115) was 85.3%, the cell count (WM1716) was 70.5% and the cell count (WM1745) was 86.5%. The cell count (WM3526) was 98.4%, the cell count (WM3619) was 99.4% and the cell count (WM451Lu) was 88.2%.
CCCCCCCCc1ccc(CCC(N)(CO)CO)cc1 [fingolimod] + Cn1nnc2c(C(N)=O)ncn2c1=O [temozolomide] (first compound 2 µM, partner dose 2 µM) was tested, and the cell count (WM115) was 96.1%, the cell count (WM1716) was 75.9% and the cell count (WM1745) was 69.4%. The cell count (WM3526) was 99.9%, the cell count (WM3619) was 99.1% and the cell count (WM451Lu) was 75.7%.
CCCCCCCCc1ccc(CCC(N)(CO)CO)cc1 [fingolimod] + Cc1nc(Nc2ncc(C(=O)Nc3c(C)cccc3Cl)s2)cc(N2CCN(CCO)CC2)n1 [dasatanib] (first compound 2 µM, partner dose 0.004 µM) was tested, and the cell count (WM115) was 74.9%, the cell count (WM1716) was 68% and the cell count (WM1745) was 75.1%. It also gave a cell count (WM3526) of 74.6%, a cell count (WM3619) of 85.4% and a cell count (WM451Lu) of 104%.
CN(NC(=O)CC(=O)NN(C)C(=S)c1ccccc1)C(=S)c1ccccc1 + COc1ccc(COc2ccc(Cc3cnc(N)nc3N)cc2OC)cc1 [GW2580] (first compound 0.006 µM, partner dose 1 µM) gave a cell count (WM115) of 93%, a cell count (WM1716) of 60.1% and a cell count (WM1745) of 53.4%. It also gave a cell count (WM3526) of 99.7%, a cell count (WM3619) of 34.9% and a cell count (WM451Lu) of 108%.
In the case of CCc1ccc(CCOc2ccc(CC3SC(=O)NC3=O)cc2)nc1 (configuration not stated) [pioglitazone] + N#Cc1c(O)c2c(-c3ccc(-c4ccccc4O)cc3)csc2[nH]c1=O [A769662] (first compound 2 µM, partner dose 2 µM), the cell count (WM115) is reported as 97.6%, the cell count (WM1716) is reported as 111% and the cell count (WM1745) is reported as 92.2%. The cell count (WM3526) was 108%, the cell count (WM3619) was 90% and the cell count (WM451Lu) was 93.9%.
CCCCCCCCc1ccc(CCC(N)(CO)CO)cc1 [fingolimod] + CCc1ccc(CCOc2ccc(CC3SC(=O)NC3=O)cc2)nc1 [pioglitazone] (first compound 2 µM, partner dose 2 µM) showed a cell count (WM115) of 81%, a cell count (WM1716) of 81.3% and a cell count (WM1745) of 86.8%. It also gave a cell count (WM3526) of 76.3%, a cell count (WM3619) of 95.2% and a cell count (WM451Lu) of 78.2%.
CCCCCCCCc1ccc(CCC(N)(CO)CO)cc1 [fingolimod] + O=C(O)[C@@H]1[O][Sb](=[O])([O][Sb]2(=[O])[O][C@H]([C@H](O)CO)[C@H](O)[C@H](C(=O)O)[O]2)[O][C@H]([C@H](O)CO)[C@@H]1O [stibogluconate] (first compound 2 µM, partner dose 2 µM) was tested, and the cell count (WM115) was 109%, the cell count (WM1716) was 119% and the cell count (WM1745) was 97.8%. For the same compound, the cell count (WM3526) was 82.8%, the cell count (WM3619) was 124% and the cell count (WM451Lu) was 114%.
NC(=O)c1ccc(N(C(N)=O)c2c(F)cccc2F)nc1-c1ccc(F)cc1F + NC1(c2ccc(-c3nc4ccn5c(=O)[nH]nc5c4cc3-c3ccccc3)cc2)CCC1 [MK2206] (first compound 0.4 µM, partner dose 0.4 µM) gave a cell count (WM115) of 73.5%, a cell count (WM1716) of 87.6% and a cell count (WM1745) of 91.5%. It also gave a cell count (WM3526) of 62.8%, a cell count (WM3619) of 87% and a cell count (WM451Lu) of 83.4%.
In the case of CN(NC(=O)CC(=O)NN(C)C(=S)c1ccccc1)C(=S)c1ccccc1 + COc1cc2c(Oc3ccc4[nH]c(C)cc4c3F)ncnc2cc1OCCCN1CCCC1 [cediranib] (first compound 0.006 µM, partner dose 0.4 µM), the cell count (WM115) is reported as 89.1%, the cell count (WM1716) is reported as 96% and the cell count (WM1745) is reported as 45.1%. For the same compound, the cell count (WM3526) was 100%, the cell count (WM3619) was 51.6% and the cell count (WM451Lu) was 86.5%.
